Data: PubChem BioAssay (NCI)
“And” between values parts separate entries of the source, which are not always exact repeats. Equal values may be shown once.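 How tested: cells in 96-well plates exposed to compound for 48 hours at five concentrations. GI50 = concentration required for 50% inhibition of growth. TGI denotes the concentration required for complete inhibition of growth.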 Peptide text beside a SMILES is read from it. * marks the point of attachment. Boc = CC(C)(C)OC(=O)*; OBn = c1ccc(CO*)cc1

Test system: NCI-H322M lung
Experiment: inhibition of tumour cell growth, NCI panel, 48 h

Q: Which TGI does the source give for `CN(C)CCCNC(=O)c1cc2/c(=C\c3ccc(N(C)C)cc3)c3ccccc3n2[n+]1C` here?
A: 78.6 µM

Q: With `Cc1nc2ccccn2c1N=Nc1ccc(C(=O)NN)cc1` as the molecule, how does the TGI read?
A: > 100 µM

Q: How did the TGI turn out when `CC1CCC2(OCCO2)[C@]2(C)CC(O)C(=O)C=C12` (some centres not stated) was run?
A: > 100 µM

Q: `CC(C)CC(NC(=O)OC(C)(C)C)C(=O)NC(CC(=O)OCc1ccccc1)C(N)=O` (stereo not drawn) (Boc-Leu-Asp(OBn)-NH2; configuration not given here) was tested. Which TGI did it give?
A: > 100 µM

Q: For `COc1cc([C@@H]2c3cc4c(cc3[C@@H](Nc3ccc(N=Cc5ccc(C(=O)O[C@@H](C(=O)O[C@H]6C[C@@]7(O)[C@@H](OC(=O)c8ccccc8)[C@@H]8[C@]9(OC(C)=O)CO[C@@H]9C[C@H](O)[C@@]8(C)C(=O)[C@H](OC(C)=O)C(=C6C)C7(C)C)[C@@H](NC(=O)c6ccccc6)c6ccccc6)cc5)cc3)[C@H]3COC(=O)[C@H]23)OCO4)cc(OC)c1O`, which TGI is on record?
A: > 44.8 µM

Q: `C[C@H](CCC(=O)O)[C@H]1CC[C@H]2[C@@H]3CC[C@@H]4C[C@H](O)CC[C@]4(C)[C@H]3CC[C@]12C` was tested. Which GI50 did it give?
A: > 100 µM and 28.1 µM

Q: What about the TGI of the same molecule?
A: > 100 µM

Q: For `Cn1c(-c2ccccc2)cc(-c2ccsc2)c1-c1ccsc1`, which TGI is on record?
A: > 100 µM

Q: `CC/C=C/C[C@H](O[Si](C)(C)C(C)(C)C)[C@H]1C[C@H]2O[C@H]([C@@H](O)C#C[Si](C)(C)C)C[C@H]2O1` was tested. Which TGI did it give?
A: 27.6 µM

Q: For `CCCCCCCCCCCCCCCC/C(C(=O)OC)=C(/O)C(=O)OCC`, which TGI is on record?
A: > 100 µM

Q: `CC(C)=CCC/C(C)=C/CC/C(C)=C/CC/C(C)=C/CSC[C@H](NC(=O)CCCCCN1CCN(C)CC1)C(=O)NC1CCCCC1` was tested. Which GI50 did it give?
A: 7.49 µM

Q: And the TGI?
A: 24.5 µM

Q: With `Cc1cc2c(O)c(c1)COCc1cc(C)cc(c1O)COCc1cc(C)cc(c1O)COC2` as the molecule, how does the TGI read?
A: > 100 µM

Q: What does the source list for `CCn1c(=O)c(Oc2ccc(F)cc2F)cc2cnc(NC3CCOCC3)nc21`?
A: GI50: > 25 µM; TGI: > 25 µM

Q: For `O=C1Nc2ccccc2/C1=C\c1c(Cl)nc2sccn12`, which GI50 is on record?
A: 7.47 µM

Q: What about the TGI of the same molecule?
A: 18.5 µM

Q: With `CCOC(=O)C(=O)/C(=C/n1c(=S)[nH]c2ccc([N+](=O)[O-])cc21)C(=O)OCC` as the molecule, how does the TGI read?
A: > 100 µM

Q: Which TGI does the source give for `COc1cc(/C=N/n2c(-c3ccccc3)n[nH]c2=O)cc(OC)c1OC` here?
A: > 100 µM

Q: How did the GI50 turn out when `CC(=O)/C=C/c1ccc(OCc2ccc(C(C)(C)C)cc2)cc1` was run?
A: > 1000 µM

Q: What about the TGI of the same molecule?
A: > 1000 µM

Q: `CCCN=Cc1c(O)c(O)c(C(C)C)c2cc(C)c(-c3c(C)cc4c(C(C)C)c(O)c(O)c(C=NCCC)c4c3O)c(O)c12` was tested. Which TGI did it give?
A: 21.4 µM

Q: Which TGI does the source give for `CCCCCC(=O)N[C@H]1CCc2cc(O)c(O)c(O)c2-c2ccc(SC)c(=O)cc21` here?
A: > 100 µM

Q: How did the GI50 turn out when `N#Cc1c(-c2ccccc2)cc(-c2ccccc2)n(CCCC(=O)NO)c1=O` was run?
A: 2.47 µM

Q: And the TGI?
A: 10.6 µM

Q: `O=C1C=CC(=O)c2cc3cc(CO)ccc3cc21` was tested. Which GI50 did it give?
A: 26.7 µM

Q: And the TGI?
A: 53.4 µM

Q: How did the TGI turn out when `COC(=O)CN(CC1O[C@@H]2OC(C)(C)O[C@@H]2C1N=[N+]=[N-])C(=O)OCc1ccccc1` (some centres not stated) was run?
A: > 100 µM

Q: How did the TGI turn out when `O=S1(=O)OCCOS(=O)(=O)C1(Br)Cc1ccccc1` was run?
A: > 100 µM

Q: `CNCCCCN(C)/[N+]([O-])=N\O` was tested. Which TGI did it give?
A: > 100 µM

Q: `CCOC(=O)/C=C(/C(=O)OCC)n1cc(C)c(=O)n(/C(=C/C(=O)OCC)C(=O)OCC)c1=O` was tested. Which TGI did it give?
A: 29.4 µM

Q: For `c1coc(C2=Nc3cccc4cccc(c34)N2)c1`, which TGI is on record?
A: > 100 µM

Q: `CC1(CO)COC(C)(C)OC1` was tested. Which TGI did it give?
A: > 100 µM

Q: For `C=CCOC(C)n1c(C)cc(=O)n(C(C)OCC=C)c1=O` (configuration not stated), which TGI is on record?
A: > 100 µM

Q: Which results are given for `COc1cc2c3c(n(CCCNCCNCCN)c(=O)c2cc1OC)-c1cc2c(cc1C3=O)OCO2`?
A: GI50: 2.56 µM; TGI: 14.2 µM

Q: For `COc1ccc(CC#C/C=C/C(=O)NCC(C)C)cc1`, which TGI is on record?
A: > 100 µM

Q: Which TGI does the source give for `CN(C)CCNc1ccc2nnn3c4ccccc4c(=O)c1c23` here?
A: 10.6 µM

Q: What does the source list for `c1cc2c(s1)SSSSS2`?
A: GI50: 19.7 µM; TGI: 42.3 µM

Q: `N#Cc1ccccc1NC(=O)/C(=N\Nc1ccc([N+](=O)[O-])cc1)C1C(=O)NC(=O)NC1=O` was tested. Which TGI did it give?
A: > 100 µM

Q: For `O=C(N[C@@H](c1ccccc1)[C@@H](O)C(=O)OCc1ccc2c(c1)OCO2)c1ccccc1`, which TGI is on record?
A: > 100 µM

Q: Which results are given for `O=C(COc1nc2ccccc2nc1-c1ccccc1)Nc1ccc(Cl)cc1`?
A: GI50: 42 µM; TGI: > 100 µM

Q: Which TGI does the source give for `CCOc1ccc(N=Nc2ccc3oc(=O)c(/C(C)=N/NC(=O)CC(=O)Nc4cccc(OC)c4)cc3c2)cc1` here?
A: 56.4 µM

Q: How did the TGI turn out when `O=[N+]([O-])c1ccc(C2=Nn3c(nnc3-c3ccccc3)SC2)o1` was run?
A: > 100 µM

Q: Which TGI does the source give for `C1CSC(Sc2nc(SC3=NCCS3)nc(SC3=NCCS3)n2)=N1` here?
A: > 100 µM

Q: `c1ccc([P+](c2ccccc2)(c2ccccc2)c2ccc3c4ccc([P+](c5ccccc5)(c5ccccc5)c5ccccc5)c5cccc(c6cccc2c63)c54)cc1` was tested. Which GI50 did it give?
A: 2.45 µM

Q: And the TGI?
A: 27.5 µM

Q: Which TGI does the source give for `COc1ccc(NC2=NCCO2)c2c1CCCC2` here?
A: > 100 µM

Q: For `COc1ccc(CC(C)=C(c2ccc(OCCN3CCCCCC3)cc2)c2ccc(OCCN3CCCCCC3)cc2)cc1`, which GI50 is on record?
A: 0.364 µM

Q: What about the TGI of the same molecule?
A: 0.981 µM

Q: Which results are given for `CCOC(=O)N1C/C(=C/c2ccc(Cl)cc2)C(=O)/C(=C/c2ccc(Cl)cc2)C1`?
A: GI50: 18.7 µM; TGI: 55.4 µM

Q: With `COCOc1cc(OCOC)cc(C(=O)Oc2ccccc2)c1` as the molecule, how does the TGI read?
A: > 100 µM

Q: For `CC1=C(O)C(=O)C(C2=C(O)C(=O)C(C)=C(O)C2=O)=C(O)C1=O`, which TGI is on record?
A: > 100 µM

Q: Which results are given for `O=C(Nc1ccc(OCc2nnc(-c3ccc(Cl)cc3)o2)c(F)c1)c1ccc(Cl)c(C(F)(F)F)c1`?
A: GI50: > 50 µM; TGI: > 50 µM

Q: With `CCOC(=O)C1=C(Cl)c2cccnc2C1=O` as the molecule, how does the TGI read?
A: > 100 µM

Q: With `O=C1C(Cl)C(c2cc3cc(Br)ccc3nc2Cl)N1c1ccc(F)c(Cl)c1` (configuration not stated) as the molecule, how does the TGI read?
A: 24.9 µM

Q: Which TGI does the source give for `O=C1OC(O)c2cc3c(cc21)OCO3` (configuration not stated) here?
A: > 100 µM

Q: Which GI50 does the source give for `NCCCOc1cc2ccccc2cc1C(=O)NCCOc1nc2ccccc2cc1C(=O)Nc1ccc(Cl)cc1O` here?
A: 1.57 µM

Q: And the TGI?
A: 3.02 µM

Q: `CCn1cc(C(=O)O)c(=O)c2cc(F)c(N3CCN(CN4C(=O)/C(=N\c5ncc(Cc6cc(OC)c(OC)c(OC)c6)c(N)n5)c5cc(Cl)ccc54)CC3)cc21` was tested. Which TGI did it give?
A: > 100 µM

Q: For `COC1=C(OC)C(O)(c2ccccc2)C1=O` (configuration not stated), which TGI is on record?
A: > 100 µM

Q: What does the source list for `C=C1C(=O)O[C@H]2[C@H]1CC/C(COC(=O)/C=C/C(=O)NCc1ccc(Cn3c(=O)sn(-c4ccccc4)c3=O)cc1)=C\CC[C@@]1(C)O[C@@H]21`?
A: GI50: 14.5 µM; TGI: 30 µM

Q: Which GI50 does the source give for `CC1(C)C(N(O)C(=O)Nc2ccc(Cl)cc2)N(c2ccc(Cl)cc2)C(=O)N1CC(=O)N/N=C/C=C/c1ccc([N+](=O)[O-])o1` (configuration not stated) here?
A: 4.95 µM

Q: And the TGI?
A: > 61.7 µM

Q: With `CC1=NC(C)(C)[N+]([O-])=C1` as the molecule, how does the TGI read?
A: > 10 µM

Q: How did the GI50 turn out when `[N-]=[N+]=NCCCn1c2c(c3cc4c(cc3c1=O)OCO4)C(=O)c1ccccc1-2` was run?
A: 40 µM

Q: And the TGI?
A: > 100 µM

Q: Which TGI does the source give for `O=c1c(Cc2c(O)ccc3ccccc23)nnc2sc(-c3nn4c(=O)c(Cc5c(O)ccc6ccccc56)nnc4s3)nn12` here?
A: > 100 µM

Q: How did the TGI turn out when `CC(=O)NCCC1CNc2ccccc21` (configuration not stated) was run?
A: > 100 µM

Q: Which TGI does the source give for `Nc1nc(-c2ccco2)cc(-c2ccco2)n1` here?
A: > 100 µM

Q: For `COC(=O)/C(=N\NC(=O)c1ccccc1O)C(C#N)c1ccccc1` (configuration not stated), which TGI is on record?
A: > 50 µM

Q: `COc1ccc(C(=O)NCCC2CN(S(=O)(=O)C(F)(F)F)c3ccccc32)c(OC)c1` (configuration not stated) was tested. Which TGI did it give?
A: > 100 µM

Q: `COc1ccc2c(CCNC(C)=O)c(C(C)=O)[nH]c2c1` was tested. Which TGI did it give?
A: > 100 µM

Q: Which TGI does the source give for `COC1OC(COC(C)=O)C(OC(C)=O)C(OC(C)=O)C1NC(=O)N(CCCl)N=O` (configuration not stated) here?
A: > 100 µM

Q: Which results are given for `O=C(c1ccc(Cl)cc1)c1no[n+]([O-])c1C(=O)c1ccc(Cl)cc1`?
A: GI50: 37.2 µM; TGI: > 100 µM

Q: For `C/C=C(\C)[C@@H](O)C(=O)O[C@@H]1CC(C(C)(C)O)[C@](C)(CCC(=O)OC)[C@H]2[C@H](OC(=O)[C@H](O)[C@H](C)CC)C[C@]3(C)C(=CC[C@H]3[C@H]3CO[C@H](C=C(C)C)C3)[C@]12C` (some centres not stated), which TGI is on record?
A: > 100 µM
